From the RNAGym collection of RNA variant scans (doi:10.1073/pnas.2313332121) come the findings set out here.

First the molecules themselves.
B1: TPR 5TU (parent)
chain: GGAUCUUCUCGAUCUAACAAAAAAGACAAAUCUGCCACAAAGCUUGAGAGCAUCUUCGGAUGCAGAGGCGGCAGCCUUCGGUGGCGCGAUAGCGCCAACGUUCUCAACUAUGACACGCAAAACGCGUGCUCCGUUGAAUGGAGUUUAUCAUG

This sample is rich in variants without activity.

Variants of B1 are the subject of the series. Put plainly: polymerase ribozyme fitness, log enrichment relative to wild type (log ratio); higher = more active; in vitro selection for triplet polymerase activity. The procedure, abridged:
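Genotype fitness is the logarithm of its enrichment divided by wild-type enrichment, using inverse-variance-weighted averages of replicates. That logarithm is base 2. Enrichment was measured by Illumina sequencing of input and output libraries from one triplicate in vitro selection round, with frozen incubation at −7 °C, on PCR-built, transcribed mutant libraries of each subunit of a heterodimeric triplet polymerase ribozyme, retaining genotypes with ≥10 input reads and ≥1 read per output.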
A3U G83A C87U U111G: the “polymerase ribozyme fitness (log ratio)” value is at most -4.2.
Then A3U A28C C75G, with at most -4.2; and A3G U13G U144C, with 0.104; and A3G G25U A89U, with at most -4.2.
Then A3U A12G A28U C87U, with at most -4.2; and A3G U7G C8A A20U C85A G94C A121C, with at most -4.2; and A3U G46A G50U U56A G74A G84U U130A U144C C149U, with at most -4.2.
Next, A3G A20U C75G C85U G92U: at most -4.2; A3U G92A G136C: -4.
Regarding A3U A41C C75G A91C A98U U144C, the “polymerase ribozyme fitness (log ratio)” value was at most -4.2.
Next, A3G A28U G50U A89U: at most -4.2; A3U C8A G70A C85U U134A U139A U144C G152U: at most -4.2; A3G C5U C35U C85U A106G: 0.235.
Next, A3C U7C A47C U55A G59A A73U U82G U146C: at most -4.2.
Take A3U A30G C96A U101G A119U G152C: the “polymerase ribozyme fitness (log ratio)” value was at most -4.2.
For the variant A3C C10A A17U C36A G50C G84C, the “polymerase ribozyme fitness (log ratio)” value is at most -4.2.
Then A3C U4G U77A G84A A107C, with at most -4.2; and A3C U13A C36U A49C U61A G70U C96G U111C U130G, with at most -4.2; and A3C C5G C54U U56G A60G C63U C116U C131G, with at most -4.2.
Then A3G A97C A107G, with at most -4.2; and A3G C87U C132G, with -4.07; and A3G C18A A19G U33G C125U, with at most -4.2.
Then A3C G50A G83C U101C U134G G141C, with at most -4.2.
On to A3U G11A A12C A37C C87G U104G G117U U144G, for which the “polymerase ribozyme fitness (log ratio)” value was at most -4.2.
Then A3G C32G C35U A49C G50C C85A C103U C118G, with at most -4.2.
A3G C51U G71A C85U C99U G136U: the “polymerase ribozyme fitness (log ratio)” value is at most -4.2.
Then A3G U6A U31G G88U, with at most -4.2; and A3C U6G A21U A91G A106G, with at most -4.2; and A3G C14G U33A U55A G81A U134A, with at most -4.2.
Regarding A3U G71C U111G, the “polymerase ribozyme fitness (log ratio)” value was at most -4.2.
As to A3U G59A C99U U144C A150G, the “polymerase ribozyme fitness (log ratio)” value is at most -4.2.
As for A3G U13C A28G C54G U56G G84A A110C, the “polymerase ribozyme fitness (log ratio)” value was at most -4.2.
Next, A3U A23C A40C C75G G83A C131A: at most -4.2; A3U C87U: -0.956.
On to A3G G34U C57A G86A G136U G141C, for which the “polymerase ribozyme fitness (log ratio)” value is at most -4.2.
Next, A3C C18A U44A C54U G83U C85G C96A A106U: at most -4.2.
Next, A3G A40U C96G A137U U151G: at most -4.2; A3U A12G A26C G81A C87G A142C: at most -4.2; A3U A28C C57A C93U G133U: at most -4.2.
Then A3G C27U C51A G59A C85U G88A A115U G141A, with at most -4.2.
Regarding A3U C87G C99G C118U A150C, the “polymerase ribozyme fitness (log ratio)” value is at most -4.2.
Turning to A3G C38G G42U G59C G70C U78C C87A, the “polymerase ribozyme fitness (log ratio)” value is at most -4.2.
For A3G A47G U61A G94U C99A C108U U135G, the “polymerase ribozyme fitness (log ratio)” value was at most -4.2.
For the variant A3U G94A, the “polymerase ribozyme fitness (log ratio)” value was -1.21.
Turning to A3U A20U A41G A49G A64U C108G, the “polymerase ribozyme fitness (log ratio)” value was at most -4.2.
Next, A3U A19C A52C C54U C87A G100U A115C: at most -4.2; A3G C51U C85G C87U: at most -4.2.
On to A3G U61A C72G C87A G136U, for which the “polymerase ribozyme fitness (log ratio)” value was at most -4.2.
Next, A3G A29U C51G U55G C87G C108G: at most -4.2.
Consider A3U A12G C87G, for which the “polymerase ribozyme fitness (log ratio)” value is -4.02.
Then A3U C72G A91U, with at most -4.2; and A3U C8A U13G A29C C57U G68C C85A C118G, with at most -4.2; and A3C C5U C27G U77G C93G, with at most -4.2.
A3U A19C C76G G84U C116A: the “polymerase ribozyme fitness (log ratio)” value is at most -4.2.
Then A3U A12U A16U G42A C76A C87A, with at most -4.2; and A3U A26U U82G C131G U135A, with at most -4.2.
Next, A3G U4C A28G A29U A37C C85A G141C: at most -4.2; A3U A21G U33G C43G C95G A113C A147U: at most -4.2.
Turning to A3C G84U C87G G124A U139C, the “polymerase ribozyme fitness (log ratio)” value was at most -4.2.
Then A3G A30G C38U C79A C87G A98U C103G, with at most -4.2; and A3G A20C G65C G68C A98G C149U G152U, with at most -4.2; and A3C C10U C18U A21U A26C C35A, with at most -4.2.
Next, A3U A24U A91U C99U U127G G143A: at most -4.2.
Then A3U C43G C85G A91U C93G, with at most -4.2; and A3U A21G A24C U33G C54G G133C, with at most -4.2; and A3C G46A A47G G86A C99A A120G A121U, with at most -4.2.
For the variant A3C C76U C96A, the “polymerase ribozyme fitness (log ratio)” value was -0.525.
For A3U C32U G34U G81U C87G, the “polymerase ribozyme fitness (log ratio)” value is at most -4.2.
A3U C36A U55A G92A C96G G126C U144C: the “polymerase ribozyme fitness (log ratio)” value was at most -4.2.
Next, A3U A37C A49G C93U: at most -4.2; A3U A12U G80C U135A: at most -4.2; A3C A60G: -0.264.
Next, A3G A20G A29G C79U G80A G81A G140C C149A: at most -4.2.
Then A3U G59A G88U C96U C118A A138G, with at most -4.2.
Consider A3G C43U A60C G84A U130A, for which the “polymerase ribozyme fitness (log ratio)” value was at most -4.2.
Then A3G A16C A22G A73G G84U C123U, with at most -4.2; and A3G A28G G34U C75U U82A G88U C96U, with at most -4.2.
Next, A3C G11U A23C A60U C72G C96A C132A: at most -4.2.
With A3G A22U A40U U44C C96G C116U U134C, the “polymerase ribozyme fitness (log ratio)” value is at most -4.2.
Next, A3U A28G C35G U56A G68C C87A C105G A121U: at most -4.2; A3G A12U A20U A24C C85A C93U: at most -4.2.
Next, A3U C14U A24G A47C C103G: at most -4.2; A3U G83A: -1.47.
